Test results taken from PubChem BioAssay AID894 (National Center for Advancing Translational Sciences (NCATS), 2007).
Among all 150,000 compounds or so, about 6,500 (4.3%) were called active. This list was built around the results that the source calls inconclusive (neither active nor inactive); the mix of calls is not that of the screen. Calls come from the whole dose curve; as a rule, active = well fitted inhibition curve with a large enough effect (not every such curve was filed as active); inconclusive = small, poorly fitted or top-dose-only effect, or another doubt; inactive = no such curve, though single readings can be large or run the other way. Potencies of inconclusive entries are doubtful fits and often do not repeat. Where a structure was tested more than once in an assay, its records may differ in their call.

The compounds below were run against 15-hydroxyprostaglandin dehydrogenase [NAD(+)] (Homo sapiens) (UniProt P15428) (assay: qHTS Assay for Inhibitors of HPGD (15-Hydroxyprostaglandin Dehydrogenase)). Details: purified HPGD, NADH fluorescence kinetic, PGE2 substrate; activity change, negative = inhibition: hits give low values.
In short: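 NADH formation kinetics: reaction with 30 uM PGE2 and 1 mM NAD+ (final), 20 nM enzyme, Tris-HCl pH 8 with Tween 20, after 15 min compound preincubation at room temperature. Fluorescence change, last versus first of five reads.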
% is set by controls: 0 for no effect and ±100 for the full control effect; potency is the fitted concentration of half-maximal effect; tags give direction and shape of the fitted curve.

Chain of UniProt P15428 (P15428 whole entry, looked up): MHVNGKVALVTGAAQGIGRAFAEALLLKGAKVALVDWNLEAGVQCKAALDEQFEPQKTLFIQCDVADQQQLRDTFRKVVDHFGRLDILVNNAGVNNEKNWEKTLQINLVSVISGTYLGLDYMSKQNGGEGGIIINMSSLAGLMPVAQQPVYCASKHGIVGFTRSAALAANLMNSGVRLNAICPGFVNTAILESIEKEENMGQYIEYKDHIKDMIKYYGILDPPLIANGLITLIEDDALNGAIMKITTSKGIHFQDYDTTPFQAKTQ

Potency, inconclusive:
C=CCNC(=O)c1ccc(-c2nc(-c3ccccc3)cs2)cc1 5.01 µM [inhibitor, partial curve]
COc1cccc(-c2coc3c(C)c4oc(=O)c(CCC(=O)O)c(C)c4cc23)c1 25.1 µM [inhibitor, partial curve]
CS(=O)(=O)N(Cc1ccco1)Cc1ccccc1Cl 17.8 µM [inhibitor, partial curve]
COCCn1nnnc1C(c1cc2c(C)cc(C)cc2[nH]c1=O)N1CCCCCC1 (stereo unspecified) 31.6 µM [inhibitor, partial curve]
Nc1cc(-c2ccccc2)ccc1O 28.2 µM [inhibitor, partial curve]
COc1cc2ccccc2cc1C(=O)Nc1ccccc1N1CCN(S(C)(=O)=O)CC1 28.2 µM [inhibitor, partial curve]
CCc1c(C)nc2cc(-c3ccc(OC)cc3)[nH]n2c1=O 31.6 µM [inhibitor, partial curve]
COc1ccc(-c2nc(NC(=O)c3ccc(OCC(=O)Nc4ccc(F)cc4)c(OC)c3)sc2C)cc1 25.1 µM [inhibitor, partial curve]
COc1ccc(CN2C(=O)Cc3c2nc(N)c2c(N)nc(N4CCCCC4)c(C#N)c32)cc1 15.8 µM [inhibitor, partial curve]
COc1ccc2[nH]c(-c3ccccc3)c(CCNC(C)=O)c2c1 35.5 µM [inhibitor, partial curve]
CCCc1nc2ccc(NC(=O)c3cccs3)cc2c(=O)n1Cc1ccc(Cl)cc1 35.5 µM [inhibitor, single point]

Potency, active:
Oc1cccc(C=NCc2ccccc2)c1O 15.8 µM
CCCCCC(O)c1cccc(OCc2ccc3ccccc3n2)c1 (stereo unspecified) 14.1 µM
CSc1ccc(S(=O)(=O)NCc2ccccc2Cl)cc1 22.4 µM
CCN(CC)c1ccc(C(=O)OCC(=O)Nc2cccc(S(=O)(=O)NC3=NCCCCC3)c2)cc1 28.2 µM

Activity change, negative = inhibition, inactive:
C=CCn1nnc2sc3c(c2c1=O)CCC(C)C3 (stereo unspecified) -18.7%
CSc1nccc(Oc2cccc(C#N)c2)n1 -11.4%
Cc1cc2ncn(/N=C/c3ccc([N+](=O)[O-])o3)c2cc1C -3.19%
Cn1c(SCC(=O)NCCc2ccccc2)nnc1-c1ccco1 -9.74%
CC(=O)Nc1cccc(NC(=O)C2CC(=O)N(c3ccc(C)cc3)C2)c1 (stereo unspecified) -10.8%
CCOc1cc(C2C(C#N)=C(N)Oc3n[nH]c(C)c32)ccc1OCCN1CCOCC1 (stereo unspecified) -10.1%
